Some of these densities may be calculated back from excess volumes.
Experiment: xn = mol fraction of the nth substance listed
Details: 101 kPa

For `COCCOCCO` + CCCC[n+]1ccn(C)c1.F[P-](F)(F)(F)(F)F, the mass density (298.15 K, x1 = 0.0949) was 1348.6 kg/m3, the mass density (298.15 K, x1 = 0.1547) was 1336 kg/m3 and the mass density (298.15 K, x1 = 0.2789) was 1307.7 kg/m3. The mass density (298.15 K, x1 = 0.4155) was 1271.8 kg/m3, the mass density (298.15 K, x1 = 0.5056) was 1245 kg/m3 and the mass density (298.15 K, x1 = 0.68) was 1183.9 kg/m3. The mass density (298.15 K, x1 = 0.7576) was 1151.8 kg/m3, the mass density (298.15 K, x1 = 0.8526) was 1106.2 kg/m3 and the mass density (298.15 K, x1 = 0.9308) was 1061.7 kg/m3. The mass density (298.15 K, x1 = 0.9598) was 1043 kg/m3, the mass density (298.15 K, x1 = 1) was 1014.9 kg/m3 and the mass density (298.15 K, x2 = 0.0158) was 1026.2 kg/m3. The mass density (308.15 K, x1 = 0.0949) was 1340.2 kg/m3, the mass density (308.15 K, x1 = 0.2789) was 1299.3 kg/m3 and the mass density (308.15 K, x1 = 0.4155) was 1263.5 kg/m3. It also gave a mass density (308.15 K, x1 = 0.5799) of 1212.1 kg/m3, a mass density (308.15 K, x1 = 0.68) of 1175.4 kg/m3 and a mass density (308.15 K, x1 = 0.8526) of 1097.5 kg/m3. For the same compound, the mass density (308.15 K, x1 = 0.9308) was 1052.8 kg/m3, the mass density (308.15 K, x1 = 0.9598) was 1034.2 kg/m3 and the mass density (308.15 K, x2 = 0.0094) was 1012.9 kg/m3. For the same compound, the mass density (308.15 K, x2 = 0.0158) was 1017.4 kg/m3, the mass density (318.15 K, x1 = 0.0949) was 1331.7 kg/m3 and the mass density (318.15 K, x1 = 0.1547) was 1319.2 kg/m3. For the same compound, the mass density (318.15 K, x1 = 0.4155) was 1254.8 kg/m3, the mass density (318.15 K, x1 = 0.5056) was 1227.9 kg/m3 and the mass density (318.15 K, x1 = 0.5799) was 1203.4 kg/m3. It also gave a mass density (318.15 K, x1 = 0.68) of 1166.6 kg/m3, a mass density (318.15 K, x1 = 0.7576) of 1134.3 kg/m3 and a mass density (318.15 K, x1 = 0.8526) of 1088.6 kg/m3. The mass density (318.15 K, x2 = 0.0094) was 1004 kg/m3.

Compound `COCCOCCOCCO` + CCCC[n+]1ccn(C)c1.F[P-](F)(F)(F)(F)F has a mass density (298.15 K, x1 = 0.1949) of 1321.1 kg/m3, a mass density (298.15 K, x1 = 0.3024) of 1293.8 kg/m3 and a mass density (298.15 K, x1 = 0.4159) of 1262.8 kg/m3. For the same compound, the mass density (298.15 K, x1 = 0.5036) was 1237.2 kg/m3, the mass density (298.15 K, x1 = 0.7104) was 1169 kg/m3 and the mass density (298.15 K, x1 = 0.8085) was 1132.1 kg/m3. For the same compound, the mass density (298.15 K, x1 = 0.9092) was 1089.3 kg/m3, the mass density (298.15 K, x1 = 0.9441) was 1073 kg/m3 and the mass density (298.15 K, x1 = 0.9772) was 1056.7 kg/m3. The mass density (298.15 K, x1 = 1) was 1044.9 kg/m3, the mass density (298.15 K, x2 = 0.0095) was 1049.9 kg/m3 and the mass density (308.15 K, x1 = 0.0316) was 1351.8 kg/m3. The mass density (308.15 K, x1 = 0.0902) was 1337.9 kg/m3, the mass density (308.15 K, x1 = 0.1949) was 1312.7 kg/m3 and the mass density (308.15 K, x1 = 0.3024) was 1285.3 kg/m3. It also gave a mass density (308.15 K, x1 = 0.4159) of 1254.3 kg/m3, a mass density (308.15 K, x1 = 0.5036) of 1228.6 kg/m3 and a mass density (308.15 K, x1 = 0.6142) of 1193.9 kg/m3. The mass density (308.15 K, x1 = 0.7104) was 1160.4 kg/m3, the mass density (308.15 K, x1 = 0.8085) was 1123.5 kg/m3 and the mass density (308.15 K, x1 = 0.9441) was 1064.3 kg/m3. The mass density (308.15 K, x1 = 0.9772) was 1047.9 kg/m3, the mass density (308.15 K, x1 = 1) was 1036.1 kg/m3 and the mass density (308.15 K, x2 = 0.0095) was 1041.1 kg/m3. It also gave a mass density (318.15 K, x1 = 0.0316) of 1343.3 kg/m3, a mass density (318.15 K, x1 = 0.0902) of 1329.4 kg/m3 and a mass density (318.15 K, x1 = 0.1949) of 1304.2 kg/m3. The mass density (318.15 K, x1 = 0.4159) was 1245.9 kg/m3, the mass density (318.15 K, x1 = 0.5036) was 1220.1 kg/m3 and the mass density (318.15 K, x1 = 0.6142) was 1185.4 kg/m3. It also gave a mass density (318.15 K, x1 = 0.7104) of 1151.8 kg/m3, a mass density (318.15 K, x1 = 0.8085) of 1114.8 kg/m3 and a mass density (318.15 K, x1 = 0.9092) of 1071.9 kg/m3. It also gave a mass density (318.15 K, x1 = 0.9772) of 1039.1 kg/m3, a mass density (318.15 K, x1 = 1) of 1027.3 kg/m3 and a mass density (318.15 K, x2 = 0.0095) of 1032.4 kg/m3.

With `COCCOCCOCCOC` + CCCC[n+]1ccn(C)c1.F[P-](F)(F)(F)(F)F the mass density (298.15 K, x1 = 0.0126) was 1363.9 kg/m3, the mass density (298.15 K, x1 = 0.1117) was 1333.8 kg/m3 and the mass density (298.15 K, x1 = 0.21) was 1303.5 kg/m3. It also gave a mass density (298.15 K, x1 = 0.2935) of 1276.7 kg/m3, a mass density (298.15 K, x1 = 0.3944) of 1242.8 kg/m3 and a mass density (298.15 K, x1 = 0.5167) of 1199 kg/m3. The mass density (298.15 K, x1 = 0.7107) was 1122 kg/m3, the mass density (298.15 K, x1 = 0.7954) was 1084.8 kg/m3 and the mass density (298.15 K, x1 = 0.9017) was 1033.9 kg/m3. The mass density (298.15 K, x1 = 0.9742) was 995.8 kg/m3, the mass density (298.15 K, x2 = 0.0093) was 986.6 kg/m3 and the mass density (308.15 K, x1 = 0.0126) was 1355.4 kg/m3. For the same compound, the mass density (308.15 K, x1 = 0.1117) was 1325.3 kg/m3, the mass density (308.15 K, x1 = 0.2935) was 1268.4 kg/m3 and the mass density (308.15 K, x1 = 0.3944) was 1234.5 kg/m3. It also gave a mass density (308.15 K, x1 = 0.5167) of 1190.5 kg/m3, a mass density (308.15 K, x1 = 0.6161) of 1152.1 kg/m3 and a mass density (308.15 K, x1 = 0.7107) of 1113.1 kg/m3. It also gave a mass density (308.15 K, x1 = 0.9547) of 997 kg/m3, a mass density (308.15 K, x1 = 0.9742) of 986.3 kg/m3 and a mass density (308.15 K, x2 = 0.0093) of 977.1 kg/m3. For the same compound, the mass density (318.15 K, x1 = 0.0126) was 1347 kg/m3, the mass density (318.15 K, x1 = 0.0472) was 1336.4 kg/m3 and the mass density (318.15 K, x1 = 0.1117) was 1316.9 kg/m3. The mass density (318.15 K, x1 = 0.21) was 1286.7 kg/m3, the mass density (318.15 K, x1 = 0.2935) was 1260 kg/m3 and the mass density (318.15 K, x1 = 0.3944) was 1226 kg/m3. It also gave a mass density (318.15 K, x1 = 0.5167) of 1181.8 kg/m3, a mass density (318.15 K, x1 = 0.6161) of 1143.3 kg/m3 and a mass density (318.15 K, x1 = 0.7107) of 1104.2 kg/m3. The mass density (318.15 K, x1 = 0.7954) was 1066.7 kg/m3, the mass density (318.15 K, x1 = 0.9017) was 1015.4 kg/m3 and the mass density (318.15 K, x1 = 0.9547) was 987.6 kg/m3. It also gave a mass density (318.15 K, x1 = 1) of 962.3 kg/m3.

For `COCCOCCOCCOCCOC` + CCCC[n+]1ccn(C)c1.F[P-](F)(F)(F)(F)F, the mass density (298.15 K, x1 = 0.0116) was 1363.7 kg/m3, the mass density (298.15 K, x1 = 0.0395) was 1354 kg/m3 and the mass density (298.15 K, x1 = 0.0915) was 1336.5 kg/m3. The mass density (298.15 K, x1 = 0.1755) was 1309.1 kg/m3, the mass density (298.15 K, x1 = 0.251) was 1284.4 kg/m3 and the mass density (298.15 K, x1 = 0.3493) was 1251.4 kg/m3. For the same compound, the mass density (298.15 K, x1 = 0.4587) was 1213.6 kg/m3, the mass density (298.15 K, x1 = 0.5624) was 1177 kg/m3 and the mass density (298.15 K, x1 = 0.6647) was 1140.4 kg/m3. For the same compound, the mass density (298.15 K, x1 = 0.7563) was 1106.5 kg/m3, the mass density (298.15 K, x1 = 0.8794) was 1058.5 kg/m3 and the mass density (298.15 K, x1 = 0.9721) was 1018.1 kg/m3. The mass density (298.15 K, x1 = 1) was 1004.8 kg/m3, the mass density (298.15 K, x2 = 0.0128) was 1010.9 kg/m3 and the mass density (308.15 K, x1 = 0.0116) was 1355.2 kg/m3. For the same compound, the mass density (308.15 K, x1 = 0.0395) was 1345.5 kg/m3, the mass density (308.15 K, x1 = 0.0915) was 1328 kg/m3 and the mass density (308.15 K, x1 = 0.1755) was 1300.7 kg/m3. It also gave a mass density (308.15 K, x1 = 0.251) of 1275.9 kg/m3, a mass density (308.15 K, x1 = 0.3493) of 1243 kg/m3 and a mass density (308.15 K, x1 = 0.5624) of 1168.3 kg/m3. For the same compound, the mass density (308.15 K, x1 = 0.6647) was 1131.6 kg/m3, the mass density (308.15 K, x1 = 0.7563) was 1097.7 kg/m3 and the mass density (308.15 K, x1 = 0.8794) was 1049.5 kg/m3. For the same compound, the mass density (308.15 K, x1 = 0.9414) was 1022.9 kg/m3, the mass density (308.15 K, x2 = 0.0128) was 1001.7 kg/m3 and the mass density (318.15 K, x1 = 0.0116) was 1346.7 kg/m3. The mass density (318.15 K, x1 = 0.0395) was 1337 kg/m3, the mass density (318.15 K, x1 = 0.1755) was 1292.2 kg/m3 and the mass density (318.15 K, x1 = 0.251) was 1267.5 kg/m3. The mass density (318.15 K, x1 = 0.4587) was 1196.5 kg/m3, the mass density (318.15 K, x1 = 0.5624) was 1159.6 kg/m3 and the mass density (318.15 K, x1 = 0.6647) was 1122.8 kg/m3. It also gave a mass density (318.15 K, x1 = 0.7563) of 1088.8 kg/m3, a mass density (318.15 K, x1 = 0.9414) of 1013.7 kg/m3 and a mass density (318.15 K, x1 = 1) of 986.2 kg/m3. For the same compound, the mass density (318.15 K, x2 = 0.0128) was 992.4 kg/m3.

`CCCC[n+]1ccn(C)c1.F[P-](F)(F)(F)(F)F` + COCCOCCO gave a mass density (298.15 K, x2 = 0) of 1367.9 kg/m3.

In the case of `CCCC[n+]1ccn(C)c1.F[P-](F)(F)(F)(F)F` + COCCOCCOCCO, the mass density (298.15 K, x2 = 0) is reported as 1367.9 kg/m3 and the mass density (318.15 K, x2 = 0) is reported as 1350.9 kg/m3.

`CCCC[n+]1ccn(C)c1.F[P-](F)(F)(F)(F)F` + COCCOCCOCCOC gave a mass density (298.15 K, x2 = 0) of 1367.9 kg/m3, a mass density (308.15 K, x2 = 0) of 1359.3 kg/m3 and a mass density (318.15 K, x2 = 0) of 1350.9 kg/m3.

Compound `CCCC[n+]1ccn(C)c1.F[P-](F)(F)(F)(F)F` + COCCOCCOCCOCCOC has a mass density (298.15 K, x2 = 0) of 1367.9 kg/m3, a mass density (308.15 K, x2 = 0) of 1359.3 kg/m3 and a mass density (318.15 K, x2 = 0) of 1350.9 kg/m3.

— a compilation of properties of binary mixtures (doi:10.1016/j.molliq.2010.01.009)
